Experimental data from PubChem BioAssay AID588453 (National Center for Advancing Translational Sciences (NCATS), 2011).
The campaign covered roughly 390,000 compounds. About 4,000 (1%) were called active. Inconclusive results, whose numbers are uncertain, are shown with a selection of clear calls. Calls come from the whole dose curve; as a rule, active = well fitted inhibition curve with a large enough effect; inconclusive = small, poorly fitted or top-dose-only effect; inactive = no such curve, though single readings can be large or run the other way. Potencies beside an inconclusive call are fits to weak or partial responses and may not hold up.
Note: nearly all actives have a fitted effect of over 65% in size.
Potency is the fitted concentration of half-maximal effect; tags give direction and shape of the fitted curve.

These compounds were tested against Thioredoxin reductase 1, cytoplasmic (Rattus norvegicus) (UniProt O89049) (assay: qHTS Assay for Inhibitors of Mammalian Selenoprotein Thioredoxin Reductase 1 (TrxR1): qHTS). Conditions: recombinant rTrxR1, NADPH fluorescence consumption, selenite substrate; series mostly up to 114 µM.
Chain of UniProt O89049 (O89049 whole entry, looked up): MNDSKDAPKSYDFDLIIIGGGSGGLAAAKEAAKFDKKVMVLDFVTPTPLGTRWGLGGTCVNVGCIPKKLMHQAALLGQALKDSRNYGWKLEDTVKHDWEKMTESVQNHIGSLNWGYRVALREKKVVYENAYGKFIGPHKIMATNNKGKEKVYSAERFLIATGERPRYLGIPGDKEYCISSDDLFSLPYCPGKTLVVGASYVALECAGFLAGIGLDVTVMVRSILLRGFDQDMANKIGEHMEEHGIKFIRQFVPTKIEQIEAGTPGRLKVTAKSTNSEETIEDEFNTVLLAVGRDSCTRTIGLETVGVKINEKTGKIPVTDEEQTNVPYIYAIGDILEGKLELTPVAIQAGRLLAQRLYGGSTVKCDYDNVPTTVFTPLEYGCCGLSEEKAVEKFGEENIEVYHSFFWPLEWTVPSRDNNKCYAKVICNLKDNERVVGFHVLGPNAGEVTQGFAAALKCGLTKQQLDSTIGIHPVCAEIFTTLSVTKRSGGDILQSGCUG
Outline: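 Rat TrxR1 (90 nM in the dispensed reagent) was pre-reduced with 400 uM NADPH for 5 min at room temperature, then incubated with compound for 15 min. After 400 uM selenite was added, NADPH fluorescence (Ex 340/Em 450 nm) was followed for 8 min.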
`CC(C)(O)C#Cc1ccc([C@@H]2C[C@H]3CN(c4ccccc4)C(=O)[C@]34CCCN24)s1` was tested, and the Potency was inconclusive: 79.4 µM [inhibitor, partial curve].
For `Cc1ccc(NC(=O)CCN2C(=O)C3CCCCC3C2=O)cc1[N+](=O)[O-]` (centres undefined), the Potency was “inactive”.
In the case of `O=C(O)c1cccc(NC(=S)NC(=O)c2ccc3ccccc3c2)c1`, the Potency is reported as inconclusive: 50.1 µM [inhibitor, partial curve].
In the case of `CC(=O)C1=C(O)C(=O)N(CCc2ccccc2)C1c1ccccc1[N+](=O)[O-]` (centres undefined), the Potency is reported as inconclusive: 35.5 µM [inhibitor, partial curve, poor fit].
`CC1=C(C)/C(=N\OC(=O)/C=C/c2ccccc2)C=CC1=O` was tested, and the Potency was inconclusive: 14.1 µM [inhibitor, partial curve].
For `CN(C)CCCn1c(SCC(=O)Nc2sc3c(c2C#N)CCCC3)nnc1-c1ccncc1`, the Potency was inconclusive: 14.1 µM [inhibitor, partial curve, poor fit].
With `COc1ccc(-c2nnc(SCc3ccc(C(=O)O)cc3)n2N)cc1` the Potency was inconclusive: 39.8 µM [inhibitor, single point].
For `O=c1[nH]c2sc3c(c2c2nncn12)CCCC3`, the Potency was “inactive”.
`CCOc1ccc(C(=O)NC(=S)Nc2cccnc2)cc1[N+](=O)[O-]` was tested, and the Potency was “inactive”.
With `Cc1occc1C(=O)NCCCCc1ccccc1` the Potency was inconclusive: 79.4 µM [inhibitor, partial curve].
In the case of `CNC(=O)/C(C#N)=C\c1ccc(CNS(=O)(=O)c2ccccc2)o1`, the Potency is reported as “inactive”.
`Cc1ccc(Cn2ccnc2SCC(=O)NCc2ccc(F)cc2)cc1` was tested, and the Potency was “inactive”.
In the case of `CCN1C(=O)C(=O)c2cc(C)ccc21`, the Potency is reported as “inactive”.
In the case of `Cc1ccc(Cn2cc(/C=N/Nc3ccc([N+](=O)[O-])cn3)c3ccccc32)cc1`, the Potency is reported as inconclusive: 89.1 µM [inhibitor, single point].
With `Cc1ccc(/C=C/C(=O)Nc2nnc(SCc3ccc(C#N)cc3)s2)o1` the Potency was inconclusive: 44.7 µM [inhibitor, partial curve].
`O=C1C(=O)N(CCCn2ccnc2)C(c2ccc([N+](=O)[O-])cc2)/C1=C(\O)c1ccc2c(c1)OCCO2` (centres undefined) was tested, and the Potency was inconclusive: 3.55 µM [inhibitor, partial curve, poor fit].
With `O=Cc1ccccc1OCCCOc1cccc2cccnc12` the Potency was inconclusive: 39.8 µM [inhibitor, single point].
In the case of `O=C1CCNCCN1[C@H](CO)c1ccccc1`, the Potency is reported as inconclusive: 79.4 µM [inhibitor, partial curve].
`NC(=O)c1c(NC(=O)c2ccccc2)sc2c1CCC2` was tested, and the Potency was inconclusive: 22.4 µM [inhibitor, partial curve].
